{"source": "PubChem BioAssay AID1345082", "about": "(National Center for Advancing Translational Sciences (NCATS), 2018)", "note": "Hit rate of the full screen: of about 94,000 compounds, about 4,000 (4.3%) were called active. Inconclusive results, whose numbers are uncertain, are shown with a selection of clear calls. The call rests on the fitted dose curve; in most records, active means well fitted inhibition curve with a large enough effect; inconclusive means small, poorly fitted or top-dose-only effect; inactive means no such curve, though single readings can be large or run the other way. Potencies of inconclusive entries are doubtful fits and often do not repeat. On the % scale 0 is the no-effect control and ±100 the full control effect; potency means the concentration at half of the fitted maximal effect; tags describe the fitted curve by direction and shape.", "data": [{"test": "Cytotoxic Profiling in NIH 3T3 Cell Line of Diverse Libraries Using Quantitative High-Throughput Screening; further: nearly all actives have a fitted effect of over 55% in size", "conditions": "NIH 3T3 viability, CellTiter-Glo ATP luminescence, 48-72 h; activity change, negative = cytotoxicity: at 96.7 µM (top of the series) unless noted; series mostly up to 96.7 µM", "method_in_brief": "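Mouse fibroblast NIH 3T3 cells, 400 per well, received compound via pintool and were incubated for 48 or 72 hr prior to CellTiter-Glo ATP luminescence measurement.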", "values": [{"smiles": "COc1ccc(CN2CCc3nc(C4CC4)nc(-c4ccc(O)cc4)c3C2)cc1", "Potency": "inconclusive: 50.1 µM [inhibitor, partial curve, poor fit]"}, {"smiles": "COC(=O)CNC(=O)C1CCCN1Cc1cccc(-c2ccc(C)c(Cl)c2)c1", "note": "(configuration not stated)", "Potency": "inconclusive: 50.1 µM [inhibitor, partial curve, poor fit]"}, {"smiles": "COc1ccc(CC(=O)N2C[C@H](C(N)=O)[C@H]3c4ccccc4N(CC(=O)N(C)C)C(=O)[C@]32C)cc1", "Potency": "inconclusive: 28.2 µM [inhibitor, partial curve, poor fit]"}, {"smiles": "O=C(NCCNC(=O)c1ccccc1Cl)c1cccc(-c2ccsc2)c1", "activity change, negative = cytotoxicity": "inactive: -16.9%"}, {"smiles": "O=c1cc(N2CCOCC2)oc2c(-c3ccc(F)c(Cl)c3)nccc12", "Potency": "active: 17.8 µM"}, {"smiles": "COc1cc(OC)cc(C(=O)N[C@@H]2CN(S(C)(=O)=O)C[C@H]2CN(C)C)c1", "activity change, negative = cytotoxicity": "inactive: -10.1%"}, {"smiles": "Cc1cc(C)n(CCC(=O)NCC23CCCC=C2N(CC2CC2)C(=O)CC3)n1", "note": "(configuration not stated)", "Potency": "inconclusive: 50.1 µM [inhibitor, partial curve, poor fit]"}, {"smiles": "Cn1ccnc1CN1C[C@H]2CN(C(=O)NCc3ccccc3)CCN2C1=O", "outcome": "inactive [at 138 µM]"}, {"smiles": "COC(=O)c1cccc(NC(=S)N[C@H]2CO[C@H]3[C@@H]2OC[C@@H]3n2nnnc2-c2ccc3c(c2)OCO3)c1", "Potency": "inconclusive: 3.55 µM [inhibitor, full curve, poor fit]"}, {"smiles": "O=C(CN1C(=O)NC2(CCCCC2)C1=O)Nc1ccc(Br)cc1F", "Potency": "inconclusive: 44.7 µM [inhibitor, partial curve, poor fit]"}, {"smiles": "COc1ccc(Cn2c(-c3cccc(Cl)c3)nc(C)c(CCO)c2=O)cc1F", "Potency": "inconclusive: 50.1 µM [inhibitor, partial curve, poor fit]"}, {"smiles": "COCCNc1ncc(-c2cccc(OC)c2)c2c1OCC2", "Potency": "inconclusive: 56.2 µM [inhibitor, partial curve, poor fit]"}, {"smiles": "O=[S+]1([O-])NC2(CCN(CC3CC3)C2)CNc2ccccc21", "note": "(configuration not stated)", "activity change, negative = cytotoxicity": "inactive: -4% [at 138 µM]"}, {"smiles": "CC(C)c1nccn1CCCNC(=O)c1ccc(-c2ccccc2F)nc1", "Potency": "inconclusive: 79.4 µM [inhibitor, partial curve, poor fit]"}, {"smiles": "COc1ccc(C(=O)NC2CCCN(CCc3ccccc3)C2)c(OC)n1", "note": "(configuration not stated)", "activity change, negative = cytotoxicity": "inactive: -25.9%"}, {"smiles": "O=C(NCc1nnc2ccc(-c3ccc(F)cc3)nn12)c1cccc(C(F)(F)F)c1", "Potency": "inconclusive: 50.1 µM [inhibitor, partial curve, poor fit]"}, {"smiles": "CCNC(=O)N(C1CC1)C1CCOC2(CCN(C(=O)c3nccc4ccccc34)CC2)C1", "note": "(configuration not stated)", "activity change, negative = cytotoxicity": "inactive: -0.358%"}, {"smiles": "O=C(NCc1cccnc1)c1cn2cc(-c3ccccc3)sc2n1", "Potency": "inconclusive: 63.1 µM [inhibitor, partial curve, poor fit]"}, {"smiles": "O=C(CCn1cnc2ccccc21)N1CCn2nc(Cc3ccccc3)cc2C1", "Potency": "inconclusive: 89.1 µM [inhibitor, single point]"}, {"smiles": "Cc1ccsc1C(=O)N1CCC(n2cc(-c3nc(C(C)C)no3)nn2)CC1", "activity change, negative = cytotoxicity": "inactive: -20.7%"}, {"smiles": "Cc1cc(C(=O)N2CCc3c(nc[nH]c3=O)C2)c2cc(Cl)ccc2n1", "outcome": "inactive"}, {"smiles": "CN(C)c1cc(N2CCCC(NC(=O)c3cccn3C)C2)ncn1", "note": "(configuration not stated)", "activity change, negative = cytotoxicity": "inactive: 1.5%"}, {"smiles": "CN(C)c1ccc(CN2CCCC3(C2)C(=NC2CCCCC2)NC(=O)N3c2cc(F)cc(F)c2)cc1", "note": "(configuration not stated)", "Potency": "inconclusive: 70.8 µM [inhibitor, partial curve, poor fit]"}, {"smiles": "CCn1cc(S(=O)(=O)N2CCCCC2c2nc(-c3ccncc3)n[nH]2)cn1", "note": "(configuration not stated)", "activity change, negative = cytotoxicity": "inactive: 4.99%"}, {"smiles": "COc1ccc(CNC(=O)C2CCCN(c3nccc(Nc4ccccc4F)n3)C2)cc1", "note": "(configuration not stated)", "Potency": "active: 10 µM"}, {"smiles": "CCCc1noc(-c2cccn3c(CNC(=O)CCc4ccccc4)nnc23)n1", "activity change, negative = cytotoxicity": "inactive: -14.5%"}, {"smiles": "Cc1cc(C(F)(F)F)nn1CC(=O)N1CCCC1c1nc(CCOCC2CC2)no1", "note": "(configuration not stated)", "activity change, negative = cytotoxicity": "inactive: -3.73%"}, {"smiles": "Cc1nc(-c2c3n(c(=O)n(CC(=O)Nc4ccc(Cl)cc4)c2=O)CCCC3)no1", "Potency": "inconclusive: 50.1 µM [inhibitor, partial curve, poor fit]"}, {"smiles": "O=C(c1ccc2c(c1)OCO2)N1CCC(Cc2nc(-c3ccc(F)cc3)no2)CC1", "Potency": "inconclusive: 14.1 µM [inhibitor, partial curve, poor fit]"}, {"smiles": "O=C(Nc1ccc(Cl)cc1)N1CCCN(c2nc3ncccc3o2)CC1", "Potency": "inconclusive: 50.1 µM [inhibitor, partial curve, poor fit]"}, {"smiles": "Cc1ncsc1C(=O)N1CCC2(CC1)OC(=O)N(Cc1ccccc1F)C2(C)c1ccccc1", "note": "(configuration not stated)", "Potency": "active: 10 µM"}, {"smiles": "O=C(NC1CC1)c1nc2cccnc2n(C2CC2)c1=O", "activity change, negative = cytotoxicity": "inactive: -22.6% [at 138 µM]"}, {"smiles": "CCCc1noc(-c2cccn3c(CNC(=O)c4ccc(N(C)C)cc4)nnc23)n1", "Potency": "inconclusive: 50.1 µM [inhibitor, partial curve, poor fit]"}, {"smiles": "CCCCOc1ccc(C(=O)N2CCC[C@H]2c2nc(-c3ccc(F)cc3)no2)cc1", "Potency": "inconclusive: 50.1 µM [inhibitor, partial curve, poor fit]"}, {"smiles": "CCOC(=O)C1(Cc2ccc(Cl)cc2)CCN(C(=O)c2cc(C)oc2C)CC1", "Potency": "active: 25.1 µM"}, {"smiles": "COc1ncc(-c2ccc3ncn(-c4ccc(F)cc4F)c(=O)c3n2)cn1", "Potency": "inconclusive: 112 µM [inhibitor, partial curve, poor fit]"}, {"smiles": "Cc1ccc2c(c1)nc1n2[C@@H](CNC(=O)c2ccc(C#N)cc2)COC1", "Potency": "inconclusive: 100 µM [inhibitor, partial curve, poor fit]"}, {"smiles": "CCCc1nc(C(=O)NCc2ccc(-n3ccnc3C)cc2)cs1", "Potency": "inconclusive: 50.1 µM [inhibitor, partial curve, poor fit]"}, {"smiles": "O=C(N[C@H]1CCN2C(=O)c3cc(-c4ccc(Cl)cc4)ccc3NC(=O)[C@H]12)C1CCCC1", "Potency": "inconclusive: 79.4 µM [inhibitor, single point]"}, {"smiles": "O=C1CN(Cc2ccc(-c3cnc4c(OCc5ccccc5)nccn34)cc2)CCN1", "Potency": "inconclusive: 50.1 µM [inhibitor, partial curve]"}, {"smiles": "CCCc1noc(-c2cn(C3CCN(C(=O)c4ccc(OC)cc4)CC3)nn2)n1", "activity change, negative = cytotoxicity": "inactive: -24.6%"}, {"smiles": "COc1ccc(C(=O)Nc2ccc(-c3noc([C@@H]4CCCN4Cc4ccc(F)c(F)c4)n3)cn2)cc1", "Potency": "inconclusive: 25.1 µM [inhibitor, full curve, poor fit]"}]}]}
